From PubChem BioAssay AID1347073 (National Center for Advancing Translational Sciences (NCATS), 2019)
The campaign covered roughly 45,000 compounds. About 200 (0.44%) were called active. Inconclusive results (about 7%) are left out. Calls come from the whole dose curve; as a rule, active = well fitted activation curve with a large enough effect; inconclusive = small, poorly fitted or top-dose-only effect; inactive = no such curve, though single readings can be large or run the other way. Some of the results follow.

Experiment: qHTS of TDP-43 Inhibitors: NCGC Sytravon Library Screen; note: 0% is about no effect; nearly all actives have a fitted effect of over 55% in size
Conditions: yeast TDP-43 toxicity rescue, BacTiter-Glo growth, 24 h; series mostly up to 46.1 µM; growth rescue (activation): at the top concentration
How it was run: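 TDP-43-expressing yeast, pregrown in raffinose, seeded at OD600 0.02 in galactose medium with compound for 24 hr at 30 deg C. Growth read by BacTiter-Glo luminescence, so rescue of toxicity appears as activation.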

SMILES	growth rescue (activation)
COCCCN(C(=S)Nc1ccc(C)cc1Cl)C(C)c1ccncc1 (configuration not stated)	inactive: 14%
CCn1cc(CN2CCC(n3nccc3NC(=O)c3ccccc3C)CC2)cn1	inactive: 3.59%
O=C1NC(=O)/C(=C\c2ccccc2OCc2ccccc2)S1	inactive: 12.7%
CC(NC(=O)c1ccccc1)c1nnc(SCc2nc3ccccc3c(=O)[nH]2)n1C (configuration not stated)	inactive: -3.34%
CCn1c(C)nc2cc(C(=O)NNC(=O)[C@@H](NC(=O)c3cc(OC)cc(OC)c3)C(C)C)ccc21	inactive: 3.9%
O=C(Nc1ccccn1)c1ccc2c(c1)OCCO2	inactive: -29%
COc1ccc(N2C(=O)c3ccc(C(=O)Nc4ccc(NC(C)=O)cc4)cc3C2=O)cc1	inactive: -15%
Cc1ccn2cc(CC(=O)O)nc2c1	inactive: -11.3%
CNc1ccccc1C(C)(C)c1ccn[nH]1	inactive: -2.01%
CN(C)c1cccc(C(=O)OCC(=O)N(Cc2ccccc2)C2CCS(=O)(=O)C2)c1 (configuration not stated)	inactive: 1.43%
Brc1cc2c(cc1-c1nc3ccccc3s1)OCO2	inactive: 6.44%
Cc1[nH]nc2c1C(c1ccoc1)C(C#N)=C(N)O2 (configuration not stated)	inactive: 5.87%
COc1ccc(Cl)cc1N(C(C)C(=O)O)S(C)(=O)=O (configuration not stated)	inactive: 7.89%
c1csc(CNCc2ccncc2)c1	inactive: -3.01%
CC(=O)Nc1cccc(-c2cnc(NC(C)=O)cn2)c1	inactive: -22.8%
CCN(CC)C(=O)C1(P(=O)(c2ccccc2)c2ccccc2)CCC1	inactive: -3.76%
CC(C)c1ccccc1NC(=O)Nc1nnc([C@H]2C[C@H](O)[C@@H](CO)O2)s1	inactive: -5.14%
C#CC(C)(CC)NC(=O)Cn1nnc(-c2cccc(C(F)(F)F)c2)n1 (configuration not stated)	inactive: -2.93%
CC(C)NC(=O)C1(C)CCCN1Cc1ccccc1C#N (configuration not stated)	inactive: 4.38%
O=C(NCc1ccc2c(c1)OCO2)c1cc(-c2ccncc2)nc2ccccc12	inactive: 13.9%
CCn1cc(CNCc2cn[nH]c2-c2cc3ccccc3o2)cn1	inactive: 0.743%
CN(C(=O)Cn1cc(C(F)(F)F)ccc1=O)c1c(N)n(Cc2ccccc2)c(=O)[nH]c1=O	inactive: 34.9%
O=C(COC(=O)c1cc(-c2cccs2)nn1-c1ccccc1)Nc1cccc([N+](=O)[O-])c1	inactive: 3.19%

SMILES	growth rescue (activation)
COc1cc(C(C)=O)ccc1OCCCOc1cccc2cccnc12	inactive: 17.1%
COc1ccc(/C=C(/NC(=O)c2cccs2)C(=O)Nc2ccc(C)cc2)cc1OC	inactive: 13.8%
COc1ccc(NS(=O)(=O)c2cc(C(=O)NNC(=O)c3ccncc3)ccc2OC)c(OC)c1	inactive: -9.55%
CCOC(CCNC(=O)c1cn(CC(C)C)c(=O)c2c1c1ccccc1n2C)OCC	inactive: 3.11%
COc1cc2c(c(OC)c1OC)-c1ccc(N(C)CC(OC)OC)c(=O)cc1[C@@H](NC(C)=O)CC2	inactive: 11.6%
Cc1sc2ncn(CC(=O)NCC3COc4ccccc4O3)c(=O)c2c1S(=O)(=O)N1CCOCC1 (configuration not stated)	inactive: -7.25%
Clc1cccc(N2CCN(c3nc4ccccc4n4nnnc34)CC2)c1	inactive: 5.07%
O=C(CSc1nnc(-c2cnccn2)n1Cc1ccco1)Nc1ccc(Br)cc1	inactive: -4.45%
C=CCn1c(SCC(=O)c2[nH]c(C)c(C(=O)OCC)c2C)nc2scc(-c3ccc(OC)c(OC)c3)c2c1=O	inactive: -13.3%
CC(C)Nc1nc(NCCN2CCNC2=O)c2sccc2n1	inactive: 14.6%
COc1ccc(NC(=O)CN(C)C(=O)c2ccc3ccccc3n2)cc1	inactive: -2.95%
Cc1cc(N2CCOCC2)nc2ccc(NC(=S)NCCN(C)C)cc12	inactive: 3.07%
COc1ccc(C(=O)N[C@H](C(=O)NCc2ccccc2)C(C)C)cc1	inactive: -2.72%
O=[N+]([O-])c1cccc(/C=N/Nc2nc(N3CCCCC3)nc(N3CCCCC3)n2)c1	inactive: 9.46%
N#Cc1cccc(NC(=O)Cc2ccsc2)c1	inactive: 8.13%
COc1ccc(NC(=S)N2CCC(NC(=O)C3CCCCC3)CC2)cc1	inactive: -10.2%
CC(=O)Nc1cccc(C(=O)NC(C)c2ccc(S(N)(=O)=O)cc2)c1 (configuration not stated)	inactive: 8.04%
CCCn1c(=N)n(CC(O)COc2ccccc2OC)c2ccccc21 (configuration not stated)	inactive: 4.92%
CCc1nc2ccc(C(=O)Nc3cc(-c4ccccc4)ccc3OC)cn2c1N(C)Cc1nccs1	inactive: 2.22%
Clc1ccc2nc3c4ccccc4cnn3c2c1	inactive: -0.0143%
O=C(N/N=C/c1coc2ccccc2c1=O)c1cn(-c2ccccc2)nc1-c1ccccc1	inactive: 6.06%
Cc1ccc(NC(=O)CN2C(=O)NC3(CCCC3)C2=O)c(Cl)c1	inactive: -0.733%
Cc1cccc(NC(=S)Nc2ccc(N3CCOCC3)cc2)c1C	inactive: 17.7%

SMILES	growth rescue (activation)
CN1CCN(c2ccc(NC(=O)c3cc([N+](=O)[O-])ccc3N3CCOCC3)cc2)CC1	inactive: -16.7%
CCOC(=O)C1(CCOc2ccccc2)CCN(Cc2cccn2-c2cccnc2)CC1	inactive: -3.5%
CCC(=O)Nc1cc(-c2cc3ccccc3oc2=O)ccc1OC	inactive: -4.14%
S=c1[nH]nc(-c2cccnc2)n1C1CCCCC1	inactive: 1.25%
C=CCNc1nnc(SCC(=O)N2CCC(C(N)=O)CC2)s1	inactive: 16.4%
CC1CCN(C(=O)c2ccc(CNc3c(N4CCCC4)c(=O)c3=O)cc2)CC1	inactive: 17%
Cc1ccc(-c2nnn(CC(=O)N(CC(=O)NC3CCCC3)c3ccc(F)cc3)n2)o1	inactive: 10.3%
CCc1nc2c(OCc3ccc(F)c(F)c3)cccn2c1N(C)C(=O)c1cccs1	inactive: 27%
COc1ccc(C2CC(c3ccccc3)=NN2C(=O)COC(=O)c2cccc(S(=O)(=O)N3CCOCC3)c2)cc1 (configuration not stated)	inactive: 4.73%
CCC(=O)N(Cc1cc(=O)[nH]c2ccccc12)c1ccccc1C	inactive: 9.38%
CCOc1ccc(CN2C(=O)c3ccccc3C2=O)cc1C(=O)O	inactive: 0.98%
CN(C)c1ccc(NC(=S)NC23CC4CC(CC(C4)C2)C3)cc1	inactive: -14.4%
O=C(NC1CCCC1)C(c1ccc(F)cc1)N(Cc1ccccc1)C(=O)c1csnn1 (configuration not stated)	inactive: 0.968%
CNS(=O)(=O)c1cc(NC(=O)CCNC(=O)c2ccco2)ccc1C	inactive: -1.81%
CC1(C)Cc2c(c(=S)nc(-c3ccccc3)n2CCOCCO)CO1	inactive: 4.13%
COc1cccc(N(C(=O)c2ccco2)C(C(=O)NC2CCCC2)c2ccc(N(C)C)cc2)c1 (configuration not stated)	inactive: 9.36%
CCCC(=O)N(Cc1cc(=O)[nH]c2ccccc12)c1ccccc1	inactive: -4.33%
O=C(N/N=C/c1cccnc1)c1cccc(NC(=O)c2ccc(Cl)cc2)c1	inactive: -2.8%
O=C(CN1CCN(c2ccccn2)CC1)Nc1cccc(Br)c1	inactive: 18%
Cc1ccc2nc(-c3ccc(NC(=O)C(C)N4C(=O)c5ccccc5C4=O)cc3)sc2c1 (configuration not stated)	inactive: 6.05%
CCC(C)NC(=O)CCc1c(C)nc2c(c(C)nn2-c2ccc(C)cc2)c1C (configuration not stated)	inactive: 6.56%
